The values below come from PubChem BioAssay AID1347073 (National Center for Advancing Translational Sciences (NCATS), 2019).

About 200 (0.44%) of roughly 45,000 compounds were called active. Another 7% or so got no clear call; they are omitted. Calls follow the shape of the dose curve; as a rule, active = well fitted activation curve with a large enough effect; inconclusive = small, poorly fitted or top-dose-only effect; inactive = no such curve, though single readings can be large or run the other way. This is one part of the list.

The assay is described as follows: qHTS of TDP-43 Inhibitors: NCGC Sytravon Library Screen. Also: 0% is about no effect; nearly all actives have a fitted effect of over 55% in size. As to conditions: yeast TDP-43 toxicity rescue, BacTiter-Glo growth, 24 h; series mostly up to 46.1 µM; growth rescue (activation): at the top concentration. The essentials: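 TDP-43-expressing yeast, pregrown in raffinose, seeded at OD600 0.02 in galactose medium with compound for 24 hr at 30 deg C. Growth read by BacTiter-Glo luminescence, so rescue of toxicity appears as activation.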
On the technique in general: Quantitative high-throughput screening tests each substance at several concentrations.
In the case of `COc1ccc(NC(=O)COC(=O)C2CCC(C(C)(C)C)CC2)c([N+](=O)[O-])c1` (stereo not drawn), the “growth rescue (activation)” value is inactive: 7.44%.

For `O=C(CSCc1cnn(-c2ccccc2)c1-n1cccc1)NCc1cccnc1`, the “growth rescue (activation)” value is inactive: 3.94%.

Consider `CCNC(=O)NC(=O)COC(=O)CCc1nc(=O)c2ccccc2n1C`, for which the “growth rescue (activation)” value is inactive: 7.85%.

Turning to `CNC(C)c1ccc(S(N)(=O)=O)cc1` (stereo not drawn), the “growth rescue (activation)” value is inactive: 5.08%.

Turning to `Cc1ccc(C2=NNC(c3ccc(Cl)cc3)=Nc3ccccc32)o1`, the “growth rescue (activation)” value is inactive: 20.2%.

For `CCOC(=O)N1CCC(N(CCN(C)C)C(=S)Nc2cccc(SC)c2)CC1`, the “growth rescue (activation)” value is inactive: -2.37%.

With `Nc1cc2c(cc1[N+](=O)[O-])OCCO2`, the “growth rescue (activation)” value is inactive: 0.751%.

For `Cc1ccccc1N(CC(=O)NCCc1ccccc1)C(=O)CCC(=O)Nc1ccccn1`, the “growth rescue (activation)” value is inactive: -3.76%.

Take `COc1ccc(C(=O)O/N=C(\N)Cc2ccc(Cl)c(Cl)c2)cc1OC`: the “growth rescue (activation)” value is inactive: -94.2%.

For `CCCC(=O)N(Cc1cc(=O)[nH]c2ccccc12)c1ccccc1OC`, the “growth rescue (activation)” value is inactive: 10.1%.

In the case of `Cc1ccc(C)c(N2CCN(C(=O)CN(C)S(=O)(=O)c3cnc[nH]3)CC2)c1`, the “growth rescue (activation)” value is inactive: -28.9%.

As to `O=C(O)c1cc(NS(=O)(=O)c2ccc(N3CCOCC3)c([N+](=O)[O-])c2)cc(C(=O)O)c1`, the “growth rescue (activation)” value is inactive: -2.61%.

For the compound `O=c1c2ccccc2nc2c3ccccc3c(NCc3ccccn3)nn12`, the “growth rescue (activation)” value is inactive: -5.69%.

`COc1ccccc1/C=C/C(=O)Nc1ccc(S(=O)(=O)Nc2cc(C)nc(C)n2)cc1`: the “growth rescue (activation)” value was inactive: 10.2%.

With `CCNC(=O)C1(C)CCN1C(=O)CCc1cccc(Cl)c1` (stereo not drawn), the “growth rescue (activation)” value is inactive: -7.81%.

`CCOC(=O)C1(Cc2ccccc2)CCN(Cc2ccc3c(c2)OCCO3)CC1`: the “growth rescue (activation)” value is inactive: 7.58%.

For `COc1ccc(CN(CC2CCC(C(=O)O)CC2)C(=S)Nc2cc(C)cc(C)c2)cc1` (stereo not drawn), the “growth rescue (activation)” value was inactive: 2.06%.

As for `CC(=O)Nc1ccc(NC(=O)CC23CC4CC(CC(C4)C2)C3)cc1`, the “growth rescue (activation)” value was inactive: 3.79%.

On to `O=C(OC1CCOC1=O)c1ccc(NS(=O)(=O)c2cccs2)cc1` (stereo not drawn), for which the “growth rescue (activation)” value is inactive: -1.52%.

On to `COC(=O)c1c(N2C(=O)[C@H]3[C@@H](C2=O)[C@]2(C(=O)Nc4c(C)cc(C)cc42)N2CCC[C@@H]32)sc(C)c1C`, for which the “growth rescue (activation)” value was inactive: 5.59%.

With `CC1(C)CC(=O)c2cc(C(=O)NCc3ccco3)c(=O)n(-c3ccccc3)c2C1`, the “growth rescue (activation)” value is inactive: -0.425%.

As to `Cc1cc2ccccn2c1C(=O)Nc1ccccc1`, the “growth rescue (activation)” value was inactive: 17.1%.

Consider `COc1ccc(C(=O)NCC(=O)N/N=C/c2ccco2)cc1OC`, for which the “growth rescue (activation)” value was inactive: -7.61%.

Turning to `O=C(O)c1ccc(Cn2c(=S)[nH]c3cc(Cl)ccc3c2=O)cc1`, the “growth rescue (activation)” value is inactive: 12%.

On to `O=S(=O)(c1ccc2c(c1)OCCO2)N1CCN(c2ncnc3sccc23)CC1`, for which the “growth rescue (activation)” value is inactive: 35.5%.

Consider `Cc1ccc(OCC(=O)N(Cc2ccc(N(C)C)cc2)C2CCS(=O)(=O)C2)cc1C` (stereo not drawn), for which the “growth rescue (activation)” value is inactive: -13.6%.

As for `Cc1ccc(S(=O)(=O)N2CCOCC2)cc1NC(=O)CN1C(=O)NC2(CCCC2)C1=O`, the “growth rescue (activation)” value was inactive: 2.41%.

Consider `O=C1C2Sc3[nH]c(=O)sc3C(c3cc([N+](=O)[O-])ccc3O)C2C(=O)N1c1ccccc1` (stereo not drawn), for which the “growth rescue (activation)” value was inactive: -3.27%.

With `COCCCN1CN=C(NS(=O)(=O)c2ccc(C)cc2)NC1`, the “growth rescue (activation)” value is inactive: 9.21%.

Regarding `Cc1ccc(CSc2ncnc3ccccc23)cc1`, the “growth rescue (activation)” value is inactive: 9.19%.

Regarding `O=C(COC(=O)c1ccccc1Nc1ccccc1)Nc1ccccc1`, the “growth rescue (activation)” value is inactive: 11%.

For `CC(=O)c1ccc(OCC(O)CN2CCN(c3ccc(F)cc3)CC2)cc1` (stereo not drawn), the “growth rescue (activation)” value was inactive: 0.37%.

Turning to `CCSc1nnc(NC(=O)CCc2ccc(OC)cc2)s1`, the “growth rescue (activation)” value was inactive: -2.86%.

In the case of `O=C(O)c1ccc(/C=N/Nc2ccc(S(=O)(=O)N3CCCC3)cc2[N+](=O)[O-])cc1`, the “growth rescue (activation)” value is inactive: -3.15%.

Take `CCOc1ccc(S(=O)(=O)Nc2ncn[nH]2)cc1`: the “growth rescue (activation)” value is inactive: 14.8%.

For the compound `Cc1ccccc1CN1C(=O)c2ccccc2S1(=O)=O`, the “growth rescue (activation)” value was inactive: 16.4%.

Take `COc1ccc(NC(=O)c2cncc(Br)c2)cc1S(=O)(=O)N1CCCCC1`: the “growth rescue (activation)” value was inactive: 9.3%.

On to `Cc1ccc2nc(CCl)[n+]([O-])c(-c3ccccc3)c2c1`, for which the “growth rescue (activation)” value was inactive: -2.95%.

As to `Cc1c(NC(=O)COc2ccc3ccccc3c2)c(=O)n(-c2ccccc2)n1C`, the “growth rescue (activation)” value is inactive: -9.39%.

On to `Cc1ccc(O)c(C(=O)c2cnn(C(=O)COc3ccc(Cl)cc3)c2)c1`, for which the “growth rescue (activation)” value is inactive: 0.905%.

`NC1=NS(=O)(=O)NC1c1cccc(F)c1` (stereo not drawn): the “growth rescue (activation)” value is inactive: 0.313%.

As to `Nc1cccc(P(=O)(c2ccccc2)c2ccccc2)c1`, the “growth rescue (activation)” value is inactive: 13.9%.

In the case of `CCOC(=O)C1CCN(C(=O)c2ccccc2NS(=O)(=O)c2ccc(C)cc2)CC1`, the “growth rescue (activation)” value is inactive: 19.2%.

For `Cc1ccccc1/C=C/c1nc2ccccc2c(=O)n1Cc1ccccc1`, the “growth rescue (activation)” value was inactive: -3.2%.

Consider `CCOc1ccc(-n2c(=S)sc3c(=O)[nH]c(SCC(=O)C(C)(C)C)nc32)cc1`, for which the “growth rescue (activation)” value is inactive: -3.83%.

For the compound `O=C(O)c1cc(NN=C2c3ccccc3-c3ccccc32)ccc1Cl`, the “growth rescue (activation)” value was inactive: -93.7%.

Regarding `CN(C)S(=O)(=O)c1cccc(NC(=O)C2Cc3ccccc3CN2C(=O)c2ccco2)c1` (stereo not drawn), the “growth rescue (activation)” value is inactive: 8.16%.

With `CCOc1ccccc1N1CCN(C(=O)NCc2ccc(F)cc2)CC1`, the “growth rescue (activation)” value is inactive: 11.7%.

Regarding `O=C(CCC1CCCN(C2C3CC4CC(C3)CC2C4)C1)NCc1ccc(F)c(F)c1` (stereo not drawn), the “growth rescue (activation)” value was inactive: -7.85%.

`CCCN(CCC)CCCNC(=O)Cn1cnc2sc(C)c(S(=O)(=O)N3CCC(C)CC3)c2c1=O`: the “growth rescue (activation)” value was inactive: 15.4%.

As for `O=C(CNC(=O)C1COc2ccccc2O1)N/N=C\c1ccccc1Cl` (stereo not drawn), the “growth rescue (activation)” value is inactive: -12.4%.

Turning to `NS(=O)(=O)c1ccc(NC(=O)CSc2nc3ccccc3n2-c2ccccc2)cc1`, the “growth rescue (activation)” value is inactive: 9.74%.

Regarding `COc1ccc(Br)cc1CNC(=O)c1ccc2c(c1)N(Cc1ccc(C)cc1)CCS2`, the “growth rescue (activation)” value was inactive: -1.09%.
